According to the supplement of paper PMC7125110:
± gives the standard error. Variants at the floor of the assay are shown more often than the library holds them.

B1: glmS ribozyme (parent)
chain: AUAAAAGCGCCAGAACUACAGAAAUGUAGUUGACGAGGAGGAGGUUUAUCGAAUUUUCGGCGGAUGCCUCCAAA

Tests used:
Conditions in all cases: with glucosamine-6-phosphate
[1] = variants of: B1; experiment: self-cleavage kobs at 40 uM GlcN6P; higher = faster cleavage; RNA array
In short: (§1)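 Barcoded ribozyme variants, transcribed in situ by E. coli RNA polymerase on sequenced MiSeq chips, were followed via a hybridised Cy3 probe at 37 °C. Glucosamine-6-phosphate ranged from 40 μM to 10 mM in HEPES/KCl/Mg(OAc)2 buffer. kobs came from decay fits to per-tile medians, and kcat and KM from weighted Michaelis–Menten fits.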

[2] = variants of: B1; experiment: self-cleavage kobs at 640 uM GlcN6P; higher = faster cleavage; RNA array
In short: as §1

[3] = variants of: B1; experiment: self-cleavage kobs at 160 uM GlcN6P; higher = faster cleavage; RNA array
In short: as §1

[4] = variants of: B1; experiment: self-cleavage kobs at 2500 uM GlcN6P; higher = faster cleavage; RNA array
In short: as §1

[5] = variants of: B1; experiment: self-cleavage kobs at 10000 uM GlcN6P; higher = faster cleavage; RNA array
In short: as §1

Variant	self-cleavage kobs at 40 uM GlcN6P [1] [s⁻¹]	self-cleavage kobs at 640 uM GlcN6P [2] [s⁻¹]	self-cleavage kobs at 160 uM GlcN6P [3] [s⁻¹]	self-cleavage kobs at 2500 uM GlcN6P [4] [s⁻¹]	self-cleavage kobs at 10000 uM GlcN6P [5] [s⁻¹]
G40A C61G	< 1e-05	< 1e-05	< 1e-05	< 1e-05	< 1e-05
G40A G60A	< 1e-05		< 1e-05		
G40A G62C	< 1e-05	< 1e-05	< 1e-05		
G40A U65A	3.89e-05 ± 8.4e-06	0.000213 ± 4.3e-05	7.08e-05 ± 1.3e-05	0.000615 ± 0.00011	0.00106 ± 0.00012
G40C A52U	< 1e-05				
G40C C61A	< 1e-05			< 1e-05	
G40C G60A	< 1e-05	< 1e-05			< 1e-05
G40C U47A C61U	< 1e-05				
G40C U49C	< 1e-05	< 1e-05		< 1e-05	< 1e-05
G40U A48G C70A	< 1e-05				3.93e-05 ± 9.6e-06
G40U A48G G63U	< 1e-05	< 1e-05	< 1e-05		< 1e-05
G40U C67U C70A	< 1e-05				
G40U G51U G62A C68U	< 1e-05				< 1e-05
G40U U45A	8.3e-05 ± 1.1e-05	0.00081 ± 0.0001	0.000265 ± 4.2e-05	0.00235 ± 0.00023	0.00154 ± 0.00024
G40U U46C	4.23e-05 ± 1.1e-05	0.000365 ± 5e-05	9.14e-05 ± 1.9e-05	0.000971 ± 0.00014	0.00137 ± 0.00016
G40U U55G	0.000102 ± 1.4e-05	0.000543 ± 9.9e-05	0.000149 ± 2.2e-05	0.00142 ± 0.00023	0.00228 ± 0.00046
G41A A48G	< 1e-05	< 1e-05	< 1e-05	< 1e-05	
G41A A48U C68A	< 1e-05	< 1e-05		< 1e-05	< 1e-05
G41A U45G C58U	< 1e-05	< 1e-05			
G41A U46G G51U U54A	< 1e-05				
G41A U69G	< 1e-05	< 1e-05	< 1e-05		< 1e-05
G41C G44C A48U G62U	< 1e-05				
G41C G59C G60C	< 1e-05	< 1e-05		< 1e-05	

Variant	self-cleavage kobs at 40 uM GlcN6P [1] [s⁻¹]	self-cleavage kobs at 640 uM GlcN6P [2] [s⁻¹]	self-cleavage kobs at 160 uM GlcN6P [3] [s⁻¹]	self-cleavage kobs at 2500 uM GlcN6P [4] [s⁻¹]	self-cleavage kobs at 10000 uM GlcN6P [5] [s⁻¹]
G41U A42C U46G C61U A64U C67U	< 1e-05			< 1e-05	< 1e-05
G41U C50A	< 1e-05	< 1e-05	< 1e-05	< 1e-05	< 1e-05
G41U G43U	< 1e-05				
A42C A52C	< 1e-05	< 1e-05		< 1e-05	
A42C A53G	< 1e-05		< 1e-05		
A42C G44C	< 1e-05	< 1e-05	< 1e-05		< 1e-05
A42C G60A	< 1e-05	< 1e-05	< 1e-05	< 1e-05	< 1e-05
A42C U49G G59U	< 1e-05				< 1e-05
A42G A64C	< 1e-05		< 1e-05		
A42G G59C	< 1e-05	< 1e-05	< 1e-05	< 1e-05	< 1e-05
A42G U45C	5.93e-05 ± 2.9e-05				
A42G U56G	0.000474 ± 5.8e-05	0.00411 ± 0.00062	0.00171 ± 0.00035		
A42U C61G	< 1e-05	< 1e-05	< 1e-05	< 1e-05	< 1e-05
A42U C67A	7.75e-05 ± 9.8e-06	0.00067 ± 9.7e-05	0.000151 ± 3.4e-05	0.00183 ± 0.00029	0.00183 ± 0.00019
A42U G43C	< 1e-05	< 1e-05	< 1e-05	< 1e-05	
A42U G43U G60U	< 1e-05				
A42U G63U C68G	< 1e-05				
G43A G63A	< 1e-05	< 1e-05	< 1e-05	< 1e-05	< 1e-05
G43A U45A	< 1e-05				
G43A U49A	< 1e-05	< 1e-05	< 1e-05	< 1e-05	< 1e-05
G43A U57A	< 1e-05				
G43C U46C	< 1e-05	< 1e-05	< 1e-05	< 1e-05	
G43C U57C	< 1e-05	< 1e-05	< 1e-05	< 1e-05	< 1e-05

Variant	self-cleavage kobs at 40 uM GlcN6P [1] [s⁻¹]	self-cleavage kobs at 640 uM GlcN6P [2] [s⁻¹]	self-cleavage kobs at 160 uM GlcN6P [3] [s⁻¹]	self-cleavage kobs at 2500 uM GlcN6P [4] [s⁻¹]	self-cleavage kobs at 10000 uM GlcN6P [5] [s⁻¹]
G43U A52C C61A C71U	< 1e-05	< 1e-05			< 1e-05
G43U C61A A64G C68U	< 1e-05				
G43U U47A	< 1e-05				
G43U U55C	< 1e-05				
G44C A52C	< 1e-05	< 1e-05	< 1e-05	< 1e-05	< 1e-05
G44C G60C	< 1e-05	< 1e-05	< 1e-05		
G44U C61U	< 1e-05	< 1e-05	< 1e-05		< 1e-05
G44U G66C	< 1e-05		< 1e-05		
U45A C61A	< 1e-05	< 1e-05		< 1e-05	
U45A G51A	< 1e-05		< 1e-05		
U45A G51U	< 1e-05		< 1e-05		< 1e-05
U45A U54G	0.00129 ± 0.00023				
U45A U55C	0.000654 ± 0.00021	0.00526 ± 0.0015		0.00714 ± 0.0029	0.024 ± 0.0085
U45A U65C	9.95e-05 ± 1.1e-05	0.000994 ± 0.00014	0.000318 ± 6.3e-05	0.00204 ± 0.00054	0.00374 ± 0.00047
U45G A48G C71U	< 1e-05		< 1e-05		
U45G A64G	0.000169 ± 2.8e-05	0.00161 ± 0.0003	0.000411 ± 0.00011	0.00451 ± 0.00092	0.00759 ± 0.002
U45G C70U	0.000542 ± 5.6e-05	0.00288 ± 0.0004	0.00139 ± 0.00018	0.00473 ± 0.00096	0.0102 ± 0.0013
U46A C61A	< 1e-05		< 1e-05		< 1e-05
U46A C70A	< 1e-05				
U46A G51A C58U G62U C70U	< 1e-05				
U46A U69C	9.53e-05 ± 1.9e-05	0.00073 ± 0.00012	0.000133 ± 2.7e-05		
U46C G63U C68U	< 1e-05		< 1e-05	< 1e-05	< 1e-05
U47A A64U	< 1e-05	< 1e-05			

Variant	self-cleavage kobs at 40 uM GlcN6P [1] [s⁻¹]	self-cleavage kobs at 640 uM GlcN6P [2] [s⁻¹]	self-cleavage kobs at 160 uM GlcN6P [3] [s⁻¹]	self-cleavage kobs at 2500 uM GlcN6P [4] [s⁻¹]	self-cleavage kobs at 10000 uM GlcN6P [5] [s⁻¹]
U47A C58A C71G	< 1e-05				
U47A G59U	< 1e-05		< 1e-05		
U47C A53U	4.38e-05 ± 9.7e-06				
U47C G51A C71A	< 1e-05				< 1e-05
U47G A52G U69C	6.7e-05 ± 2.4e-05				9.36e-05 ± 1.5e-05
A48C C61A	< 1e-05	< 1e-05			< 1e-05
A48C G59A G62U	< 1e-05		< 1e-05	< 1e-05	< 1e-05
A48C U69G	< 1e-05		< 1e-05		< 1e-05
A48G A53U	< 1e-05				
A48G A64C	< 1e-05	< 1e-05	< 1e-05	< 1e-05	< 1e-05
A48G G59C	< 1e-05		< 1e-05	< 1e-05	< 1e-05
A48U G60C	< 1e-05	< 1e-05	< 1e-05	< 1e-05	< 1e-05
A48U U54C C70A	< 1e-05				
U49A G51A	< 1e-05				
U49A G59U G60U	< 1e-05				< 1e-05
U49A G63C	< 1e-05	< 1e-05			< 1e-05
U49A U57A	< 1e-05	< 1e-05	< 1e-05		< 1e-05
U49C G66A	< 1e-05				
U49G A53U G63A	< 1e-05				< 1e-05
U49G G63C	< 1e-05		< 1e-05	< 1e-05	< 1e-05
C50U C61U	< 1e-05	< 1e-05		< 1e-05	< 1e-05
